# Laboratory results taken from PubChem BioAssay AID1346428 (National Center for Advancing Translational Sciences (NCATS), 2018).
# Hit rate of the full screen: of about 48,000 compounds, about 1,200 (2.5%) were called active. About 2% were inconclusive and are not listed.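 The calls were made as follows: active = activation of at least 60% and not above a set upper limit (about 1 call in 100 departs from these limits); inconclusive = activation of 40% to 60%, or above that upper limit; inactive = activation under 40%.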 The list shows a part of the results.
# Target: Probable G-protein coupled receptor 32 (Homo sapiens) (UniProt O75388)
# UniProt O75388, sequence (O75388 whole entry, looked up): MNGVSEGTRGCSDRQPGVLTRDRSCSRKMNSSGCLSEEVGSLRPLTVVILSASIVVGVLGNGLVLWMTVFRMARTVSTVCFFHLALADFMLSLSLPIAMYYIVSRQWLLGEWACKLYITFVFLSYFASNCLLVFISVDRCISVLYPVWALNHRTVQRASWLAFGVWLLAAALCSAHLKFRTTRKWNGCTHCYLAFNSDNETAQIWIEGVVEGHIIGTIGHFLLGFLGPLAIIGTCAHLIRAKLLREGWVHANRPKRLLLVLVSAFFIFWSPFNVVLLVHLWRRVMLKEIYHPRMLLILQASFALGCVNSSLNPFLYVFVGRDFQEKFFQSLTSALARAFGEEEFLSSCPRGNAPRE
# Assay: qHTS for Agonists of Human Resolvin D1 Receptor DRV1; also: 0% is about no effect
# Details: CHO-K1 GPR32 beta-arrestin PathHunter luminescence, 90 min; at 76.9 µM; active compounds read high; zero percent set by DMSO-only wells
# Method in brief: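 CHO-K1 cells stably expressing ProLink-tagged GPR32 and Enzyme Activator-tagged beta-arrestin were seeded at 2,500 cells/well overnight, exposed to compounds for 90 min at 37 °C, then read by beta-Gal complementation chemiluminescence after 1 h detection reagent.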
row,SMILES,activation
1,CCOc1cc(C(=O)Nc2ccc3c(c2)n(C)c(=O)c(=O)n3C)cc(OCC)c1OCC,inactive: -84.7%
2,CCOc1ccc(-n2c(SCC(=O)Nc3ccc(CC)cc3)nc3c(oc4ccccc43)c2=O)cc1,inactive: -16.6%
3,COc1cc(NC(=O)c2cc(-c3cccc(OC)c3)n[nH]2)cc(OC)c1,active: 81.5%
4,COC(=O)c1ccc(NC(=O)CC2C(=O)N(c3cccc(OC)c3)C(=O)N2C(C)C)cc1 (configuration not stated),inactive: -9.3%
5,COc1ccccc1CNC(=O)c1cc2cc3ccc(Cl)cc3nc2o1,inactive: 4.2%
6,COc1ccc(CCNC(=O)CCc2c(C)nc3c(c(C)nn3-c3ccc(C)c(C)c3)c2C)cc1OC,inactive: 25.3%
7,C[C@@]1(C2CCCC2)Cc2cc(OCC(=O)O)c(Cl)c(Cl)c2C1=O,inactive: -17.2%
8,CCOc1ccccc1NC(=O)Cn1c(=O)n(CCC(=O)NCc2ccc3c(c2)OCO3)c(=O)c2ccccc21,inactive: -18.1%
9,COc1cc(OC)c(NC(=O)c2csc3c2CCC(C)C3)cc1Cl (configuration not stated),inactive: -7.53%
10,CCc1ccccc1N1CC(c2nc3ccccc3n2CCCOc2ccc(Cl)cc2)CC1=O (configuration not stated),inactive: -7.11%
11,Cc1ccc(NC(=O)CCCn2c(=O)c3cccn3c3ccccc32)c(Cl)c1,inactive: -19.4%
12,Cc1c(CNC2CCCCC2)c(C(=O)O)c(C)n1Cc1c(F)cccc1Cl,inactive: -5.55%
13,COc1ccccc1N1CCN(c2ccc(NC(=O)c3ccc(C)cc3)cc2C(=O)O)CC1,inactive: -0.581%
14,Nc1nnc(SCC(=O)Nc2ccc(Cl)cc2)s1,inactive: 16.2%
15,O=C(CCOc1ccccc1)N(Cc1cccnc1)c1nc2c(F)cc(F)cc2s1,inactive: -19.2%
16,COc1ccccc1OCCSc1nc(-c2ccc(C(C)(C)C)cc2)nc2cc(=O)[nH]n12,active: 65.5%
17,Cc1ccc(CNC(=O)Cn2cc(S(=O)(=O)Cc3ccccc3Cl)c3ccccc32)cc1,inactive: -11.8%
18,CCOc1ccc(NC(=O)C(CC)n2c(=O)c(-c3ccccc3NC(C)=O)nc3ccccc32)cc1 (configuration not stated),inactive: -10.4%
19,O=C(CSC1=Nc2ccccc2C2=NC(CCC(=O)NC3CCCCC3)C(=O)N12)Nc1cccc(C(F)(F)F)c1 (configuration not stated),inactive: -0.573%
20,Cc1cc(Cl)ccc1NC(=O)c1cccc(NC(=O)N2CCSc3ncccc32)c1,inactive: 17.5%
21,COc1ccc(C(=O)Nc2cc3c(cc2C(=O)c2ccccc2Cl)OCCO3)cc1,inactive: -20.7%

row,SMILES,activation
1,COc1cc(OC)c(NC(=O)N2CCSc3ccccc32)cc1Cl,inactive: -24.9%
2,COc1ccc(CNC(=O)c2cnc3sc(N4CCOCC4)nn3c2=O)cc1,inactive: 10.2%
3,CCOC(=O)c1c(NC(=O)CCCOc2ccccc2C)sc2c1CCC(C)C2 (configuration not stated),inactive: 7.2%
4,Fc1ccc(-n2ncc3c(NC4CCCCCC4)ncnc32)cc1,active: 79.7%
5,CCOC(=O)c1c(C)oc2nc(C)nc(NCCCN3CCN(c4ccccc4)CC3)c12,inactive: 6.37%
6,COC(=O)C(CCSC)NC(=O)C1CCN(c2ncnc3c2nc2n3CCCCC2)CC1 (configuration not stated),inactive: -1.09%
7,CCOc1ccc(NC(=O)CCc2c(C)nc3nc(C)nn3c2C)cc1,inactive: 13.3%
8,N#Cc1ccccc1CN1C(=O)c2ccccc2Sc2ccc(C(=O)OCc3ccco3)cc21,inactive: 2.92%
9,O=C(CCc1ccccc1)NCc1nc2cccnc2n1Cc1ccc(F)cc1,inactive: -22.5%
10,CCOc1ccc(C(=O)N2CCC(c3nnc(-c4ccccc4OC)o3)CC2)cc1,inactive: -3.25%
11,CCCCCCCC(=O)OCC(COC(=O)CCCCCCC)OC(=O)CCCCCCC,inactive: 9.45%
12,Oc1cc2c(cc1O)C(c1ccccc1)CNCC2 (configuration not stated),inactive: -9.52%
13,COc1ccccc1CNC(=O)c1ccc(Cn2c(SCc3ccccc3)nc3cccnc32)cc1,inactive: -8.28%
14,CCNC(=O)CC1C(=O)N(c2ccc(F)cc2)C(=O)N1CCOC (configuration not stated),inactive: -9.26%
15,CCOC(=O)N1CCc2c(sc3c2c(=O)n(-c2ccccc2)c(=O)n3CC(=O)Nc2ccc(OC)cc2OC)C1,inactive: -8.7%
16,COc1ccc(NC(=O)CN2CCN(Cc3ccccc3)S2(=O)=O)c(OC)c1,inactive: -15.4%
17,CCOc1ccc(OCC)c(NC(=O)c2cc(S(=O)(=O)N3CCCC3)cn2C)c1,inactive: -10.1%
18,O=c1c2sc3ccccc3c2n(Cc2cccc(Cl)c2)c(=O)n1Cc1ccco1,inactive: -15.1%
19,CC(=O)c1ccc(NC(=O)CCc2c(C)nn(-c3ccc(N4CCOCC4)nn3)c2C)cc1,inactive: -5.97%
20,Cc1cc(C)c(S(=O)(=O)NCCc2cc3ccc(C)c(C)c3[nH]c2=O)c(C)c1,inactive: 18.8%
21,Cc1ccc(N2CCN(C(=O)C3CCN(S(=O)(=O)c4ccc5c(c4)oc(=O)n5C)CC3)CC2C)cc1 (configuration not stated),inactive: 15.7%
